The values below come from patent US9464075B2 (priority 2008, dated 2016).

This assay relates to wild-type influenza virus (A/Udorn/72). Type of assay: cell-based.

For `C1CCC2(CC1)CCN(C1=NCCN1)CC2` [BL-1743, 3-(4,5-Dihydro-1H-imidazol-2-yl)-3-aza-spiro[5.5]undecane, reference compound], the “concentration at which plaque formation was inhibited” value lay in the range of 50 to 100 µM.
